Source: PubChem BioAssay AID686979 (National Center for Advancing Translational Sciences (NCATS), 2013)
Hit rate of the full screen: of about 420,000 compounds, about 50,000 (12%) were called active. Inconclusive results, whose numbers are uncertain, are shown with a selection of clear calls. The call rests on the fitted dose curve; in most records, active means well fitted inhibition curve with a large enough effect; inconclusive means small, poorly fitted or top-dose-only effect; inactive means flat fitted curve, though single readings scatter. Potencies of inconclusive entries are left out as doubtful fits.

Assay: qHTS for Inhibitors of human tyrosyl-DNA phosphodiesterase 1 (TDP1): qHTS in cells in presence of CPT; further: nearly all actives have a fitted effect of over 55% in size
Settings: chicken DT40 Tdp1-/-;hTDP1 cells + 20 nM CPT, ATP luminescence, 48 h; activity change, negative = growth inhibition: at 46.2 µM (top of the series) unless noted
Procedure, shortened: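 Chicken DT40 Tdp1-/- cells stably complemented with human TDP1 were seeded at 400 cells/well in medium containing 20 nM camptothecin, exposed to pin-transferred compounds, and grown at 37 °C for at least 48 hr. Viability was read as ATP luminescence.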
On the % scale 0 is the no-effect control and ±100 the full control effect; potency means the concentration at half of the fitted maximal effect; tags describe the fitted curve by direction and shape.

| Structure (SMILES) | Potency | activity change, negative = growth inhibition |
| --- | --- | --- |
| CCOc1ccc(S(=O)(=O)N(CC(=O)NCCc2ccc(OC)c(OC)c2)c2ccccc2)cc1 | inconclusive [inhibitor, full curve] |  |
| C=Cn1c(P(=S)(N2CCOCC2)N2CCOCC2)cc2c1CCCC2 |  | inactive: -20.7% |
| O=C(O)[C@H]1C[C@@H]1[C@H](NP(=O)(c1ccccc1)c1ccccc1)c1ccccc1 |  | inactive: 20.4% |
| Oc1c(Cl)cccc1Cc1cc(Cl)cc(Cl)c1O | inconclusive [inhibitor, partial curve] |  |
| CC1CCC(C(C)C)C(OC(=O)Cn2c(COc3ccccc3)[n+](C)c3ccccc32)C1 (stereo not given) | active: 0.58 µM |  |
| CCc1ccc(C2=NN(CCC(=O)N3CCC4(CC3)OCCO4)C(=O)CC2)cc1 |  | inactive: 1.46% |
| c1ccc(-c2ccc(-c3[nH]ncc3CN3CCC(N4CCSCC4)CC3)cc2)cc1 | inconclusive [inhibitor, single point] |  |
| O=C(N/N=C/C1C(=O)NC(=S)N(c2ccccc2)C1=O)c1cc(Br)c(O)c(Br)c1 (stereo not given) | active: 16.4 µM |  |
| C[C@@H]1[C@H]2Cc3ccc(O)cc3[C@]1(C)CCN2C |  | inactive: -0.717% [at 166 µM] |
| CN(C)c1ccc(C=C2C=CC=C2)cc1 | inconclusive [inhibitor, single point] |  |
| COc1cc(C(=O)OC2C[C@H]3CC[C@@H](C2)N3C)ccc1O (stereo not given in full) |  | inactive: 33.4% |
| C[C@@H]1NCCc2cc(O)c(O)cc21 | inconclusive [inhibitor, single point] |  |
| O=c1c2ccccc2nc(N2CCCC2)n1-c1ccc(Cl)cc1 | active: 20.6 µM |  |
| CN=C1CN=C(c2ccc[nH]2)c2cc(Cl)ccc2N1 | active: 0.0794 µM |  |
| O=[N+]([O-])c1ccc(N2CCOCC2)c2ccncc12 |  | inactive: -28% |
| CC12CCC3C(CC=C4CC(O)CCC43C)C1CC(=CN1CCOCC1)C2=O (stereo not given) |  | inactive: 1.83% |
| COc1ccccc1CCNC1CCC(C(C)(C)C)CC1 (stereo not given) | inconclusive [inhibitor, single point] |  |
| COc1ccc(CNCCc2ccc3c(c2)OCO3)cc1Br | inconclusive [inhibitor, single point] |  |
| FC(F)OC(F)(F)C(F)Cl (stereo not given) |  | inactive: 3.74% |
| Cc1ccc(-c2nc(CN3C(=O)CN=C(c4ccccc4)c4ccccc43)c(C)o2)cc1 | inconclusive [inhibitor, single point] |  |
| C[C@H](CN1CCOCC1)C(C(=O)N1CCCC1)(c1ccccc1)c1ccccc1 | inconclusive [inhibitor, single point] |  |
| CCOC(=O)C1(C)CCN1C(=O)c1cc(OC)c(OC)c(OC)c1 (stereo not given) | inconclusive [inhibitor, partial curve] |  |
| COc1cc(CN2CC3CC(C2)c2cccc(=O)n2C3)cc(OC)c1OC (stereo not given) |  | inactive: -3.71% |
| Cc1ccc(O)c(C)c1 |  | inactive: 3.15% |
| COc1cccc(-c2nn(CCC#N)cc2C(=O)Nc2ccccc2Cl)c1 | inconclusive [inhibitor, single point] |  |

| Structure (SMILES) | Potency | activity change, negative = growth inhibition |
| --- | --- | --- |
| CN1CCN(CCC(C#N)(c2ccccc2)c2ccccc2)CC1 |  | inconclusive: -30.2% [inhibitor] |
| O=C(CCN1CC=C(c2ccccc2)CC1)NCc1ccccc1 |  | inactive: -8.33% |
| COc1ccc(-c2noc(=O)n2Cc2cc(C)ccc2C)cc1 | inconclusive [inhibitor, single point] |  |
| Cc1ccc(-n2c(-c3ccc([N+](=O)[O-])cc3)nc3ccccc3c2=O)cc1 | inconclusive [inhibitor, partial curve] |  |
| N#CC(C#N)=Cc1cccnc1 | active: 9.2 µM |  |
| C[C@@H]1CN([C@H](C)CO)C(=O)c2c(c3ccccc3n2C)-c2ccccc2CO[C@@H]1CN(C)Cc1ccc(O)cc1 | active: 20.6 µM |  |
| COc1cccc(CN2CCN(C(=O)Cc3ccccc3OC)CC2)c1 |  | inactive: 0.434% |
| O=C1NC(=O)C(Nc2ccccc2)C(=O)N1 |  | inactive: -2.12% |
| NC1=NC(=O)N2CC12 (stereo not given) | inconclusive [inhibitor, single point] |  |
| O=C(c1ccc(Cl)cc1)C1CCCN(Cc2cccc3cccnc23)C1 (stereo not given) | active: 23.1 µM |  |
| c1ccc(C2(NC3=NCCO3)CCCCC2)cc1 | inconclusive [inhibitor, single point] |  |
| O=C1NCN(c2ccccc2)C12CCN(C(CCc1ccccc1)c1nnnn1-c1ccc3c(c1)OCCO3)CC2 (stereo not given) | inconclusive [inhibitor, single point] |  |
| CCOc1ccc(Cl)cc1CNCCc1ccc(F)cc1 | active: 20.6 µM |  |
| CC(C)C(OC(=O)c1ccco1)C(=O)NCc1ccco1 (stereo not given) | inconclusive [inhibitor, partial curve] |  |
| CN1C2CCC1C(COC(=O)c1ccccc1)C(O)C2 (stereo not given) |  | inactive: 19.7% |
| CCCCn1c(=O)c(C(=O)NCc2ccccc2OC)c(O)c2ccccc21 | inconclusive [inhibitor, single point] |  |
| O=[As](O)(O)c1ccc(N=Nc2ccc(O)cc2)cc1 |  | inactive: 2.04% |
| Cc1ccccc1-n1nc(C)c2c1NC(=O)CSC2c1ccc(Cl)cc1 (stereo not given) | inconclusive [inhibitor, single point] |  |
| Cc1[nH]c2ccc(OC(=O)N3CCOCC3)cc2c1C(=O)OC(C)C | inconclusive [inhibitor, partial curve] |  |
| CC(C)(C)n1c(O)c(C=Nc2ccc3c(c2)CCC3)c(=O)[nH]c1=O | inconclusive [inhibitor, single point] |  |
| O=c1[nH]c2c(s1)C(c1cccnc1)C1C3CCC(C3)C1S2 (stereo not given) | inconclusive [inhibitor, single point] |  |
| CN1CCN(Cc2cn(C)c3ccccc23)CC1CCO (stereo not given) | inconclusive [inhibitor, single point] |  |
| C=C(C=O)CC1CC(O)[C@]2(C)OC3CC4OC5C[C@]6(C)O[C@]7(C)CCC8OC9C[C@]%10(C)OC%11C(C)=CC(=O)OC%11CC%10OC9C[C@@H](C)C8OC7CC6O[C@]5(C)CC5OC5C4OC3CC2O1 (stereo not given in full) | active: 0.411 µM |  |
| COc1ccc(N=C(C)c2c(O)n(C3CCCCC3)c(=O)[nH]c2=O)c(OC)c1 |  | inactive: -27.1% |
| Cc1ccc(OCC(=O)NCCN2CCN(C(=O)COc3ccc(C)cc3)CC2)cc1 |  | inactive: -7.13% |
